# The full ranking holds about 33,000 sequences; the median of “E-score (-0.5 to 0.5)” is about -0.054, and the highest 2% start at about 0.39. The list shows a part of the results.
# Biological target: Ylr278c (UniProt Q05854)
# Test: PBM E-score (8-mer binding enrichment) (E-score (-0.5 to 0.5)); higher = stronger / more preferred TF binding; most listed sequences are background and not binding sites
# Details: protein concentration: 200 nM; construct: GST-DNA-binding domain
# Protocol: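 Universal 'all 10-mer' protein binding microarrays (Agilent AMADID 015681) probed with GST-tagged S. cerevisiae TFs (full-length or DBD) made by in vitro transcription/translation (PURExpress), about 100-200 nM. Bound TF was detected with fluorescent anti-GST. Each ungapped 8-mer (which stands for itself and its reverse complement) is scored by the PBM enrichment score (E-score), a modified Wilcoxon-Mann-Whitney statistic from -0.5 to +0.5, computed with the Universal PBM Analysis Suite. Scale: above 0.35 generally sequence-specific binding.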
row,Sequence,PBM E-score
1,AGGGCTTC,-0.163
2,ATCAAGAT,0.0116
3,GGCCGATA,0.3
4,ACCTATCG,0.0878
5,TTCACGAA,-0.187
6,ATGGCTTA,-0.154
7,TACTTTAA,-0.122
8,ACAAGGGG,-0.102
9,CAGGCCCC,-0.186
10,CCAATATA,-0.237
11,CATTCCGG,0.384
12,GCCATTAC,-0.0435
13,GCTATAGC,-0.136
14,AAGCTAGG,0.0895
15,CCCCAGTC,-0.0412
16,CAGCAATA,-0.141
17,GCTTGTTA,0.0864
18,GCCCTTTA,-0.148
19,AATAAGCT,-0.0304
20,ACCACCAT,0.0454
21,GATTTAAA,0.0215
22,CGTCTTGC,-0.00892
23,GCCAGCAC,-0.0273
24,TCCGGAAA,0.456
25,CGCACCCG,0.23

row,Sequence,PBM E-score
1,TCGACGAA,-0.0869
2,GTTAGGAA,0.0503
3,ATGCCCGC,0.275
4,CACATGAG,-0.342
5,CAACTACC,0.0162
6,CGAGCGCA,0.0815
7,TAGACGCA,-0.12
8,ACTTAAAC,-0.129
9,AGCGAGGA,-0.0204
10,CATGAAAG,-0.0739
11,CATACGGA,0.37
12,CCGGGCGC,0.264
13,AGGGCAAA,0.0461
14,GCGCAAAC,0.0752
15,GCTGCAAC,0.00557
16,ATGTGTTC,0.00368
17,CCGGGCGA,0.287
18,ATGACACG,0.0232
19,AAACCGAG,0.0949
20,AGCGTCGC,0.037
21,AGGACGGA,0.339
22,GCATAATA,-0.0357
23,AAGCAGGG,-0.0414
24,ACAATTTG,-0.21
25,GGTGGGGA,0.0745

row,Sequence,PBM E-score
1,AAACTGTA,-0.074
2,AGTGTAAT,-0.104
3,CACTAAAC,-0.0554
4,AAACGGCG,0.165
5,CTGTCCAC,-0.0489
6,AAATATAA,0.144
7,CCACGAGG,-0.153
8,ACTACAGC,-0.0825
9,AACACGCA,-0.0979
10,CGTCTCCC,0.225
11,AGACTTGA,-0.286
12,GCATGCGC,0.0729
13,AGTACAAT,-0.0868
14,TGTTGGAA,-0.0973
15,CATGCCCC,0.109
16,GGCTCAAC,-0.271
17,CCGAAATC,0.385
18,CGTCTTAC,-0.236
19,CCCTTACG,-0.192
20,TGTGCAAA,-0.319
21,CATATCTA,0.053
22,AGCGGGTA,-0.0799
23,GCAGAGGC,-0.103
24,AAATAACG,-0.0174
25,ATCGCCTG,-0.104

row,Sequence,PBM E-score
1,CGGGCGAG,0.229
2,AGACGCAA,0.0449
3,GGGCAGAA,0.008
4,CACTTTAG,-0.125
5,ATTGAGAC,-0.0756
6,GGATGTAA,0.0423
7,GGATTCTA,0.0814
8,CTCGTAGC,-0.086
9,ATCTGTTC,0.0459
10,AGCAGATC,-0.151
11,ATATTTGC,0.0567
12,ATCGCAGG,-0.165
13,GAGCGTGC,0.159
14,CCGACCAC,0.251
15,CTGAATTA,-0.0803
16,CTGCTAGC,-0.211
17,AAATTACT,-0.0481
18,AGCGCAAT,-0.0236
19,ACTAGGAC,-0.0916
20,AACTCTGA,0.0684
21,AGATCTTG,-0.225
22,AACCAGAA,-0.144
23,GAAAGTGA,-0.0622
24,CTGCACTA,0.0495
25,AGGCATAA,-0.15

row,Sequence,PBM E-score
1,CAATATAG,-0.174
2,CAGAAAGC,-0.0664
3,AAGTCCGT,0.433
4,GGTTTAAA,-0.0177
5,ACGTCGAA,-0.123
6,GTGCACAA,-0.0502
7,ATTGTCTG,-0.0613
8,ATGGTCGG,0.196
9,AGTACCGC,0.0814
10,CGTTATGC,-0.186
11,CTTACTGA,-0.246
12,ATCTACAC,-0.136
13,CCCGATAG,0.19
14,ACTTTGTA,-0.105
15,CGGCCTAC,0.177
16,CAATTCCA,-0.0617
17,CCCCTACC,-0.175
18,ACAAAAAG,0.0287
19,GAAGTAGA,-0.0571
20,ACAAGCAT,-0.0824
21,ATGCTGAC,-0.351
22,CGATGCTC,0.234
23,TCACTGCA,-0.208
24,TAAACGGA,0.297
25,AGCCACAG,-0.255

row,Sequence,PBM E-score
1,CGATACGA,-0.0979
2,ACTTTTAT,-0.0703
3,AATAAGAT,-0.103
4,TGGGTACA,-0.0846
5,TAGCGTGA,-0.223
6,ATCATTTG,-0.0126
7,GGGTAATA,0.0281
8,CATTGAAG,-0.185
9,TTAGCGAA,0.0152
10,CGGCTCGC,0.189
11,CAGCAAAC,-0.026
12,CCCTACTA,-0.0452
13,GATATGTA,0.0233
14,CTCCATTA,-0.0529
15,AGGCAGCA,-0.0855
16,AAGGTGAT,-0.169
17,CGTGCCAG,-0.119
18,AATATAAT,-0.0657
19,CCGACGAC,0.235
20,ACCACAAA,-0.0105
21,CCTTAGAC,-0.125
22,ATCGTCCC,-0.0888
23,AACCTCGC,-0.0783
24,CCCTCCAG,-0.0892
25,GACCGAGA,0.172

row,Sequence,PBM E-score
1,AAGCGTCG,-0.00882
2,GTTGCCGA,0.252
3,CCTACGCA,-0.183
4,CGTCTTCC,0.00507
5,GCCATCAA,-0.32
6,TAACTTGA,-0.237
7,AGCCTACT,-0.171
8,AGTCGCTC,-0.139
9,CAGCATTC,-0.00157
10,ATCTGAAC,-0.118
11,ACTTCTGG,-0.257
12,CGATGCTA,0.0429
13,CATGACAC,-0.145
14,CCAACATA,0.0416
15,CAAGTCTG,-0.336
16,CCCTAAGC,-0.173
17,CGTGCGCA,-0.0163
18,CAGGGTGA,-0.195
19,CGTCTACA,-0.104
20,AACGGATG,0.132
21,GTTCGGTA,0.189
22,TGGCCGAA,0.144
